Patent publication US11149077B2, “Targeted therapeutics based on engineered proteins for tyrosine kinases receptors, including IGF-IR” (BRISTOL-MYERS SQUIBB COMPANY, priority 2006, dated 2021)

How the values were obtained:
[1] = test system: Rh41 human rhabdomyosarcoma cells; assay: Cellular proliferation in Rh41 cells, [3H]-thymidine incorporation; format: cell-based
Experimental: (§1) Proliferation was evaluated by incorporation of [3H]-thymidine into DNA after a 72 hour exposure to reagents. Rh41 cells were plated at a density of 3500 and H929 at 8000 cells/well, respectively, in 96-well microtiter plates and 24 hours later they were exposed to a range of drug concentrations. After 72 hours incubation at 37° C., cells were pulsed with 4 μCi/ml [3H] thymidine (Amersham Pharmacia Biotech, UK) for 3 hours, trypsinized, harvested onto UniFilter-96, GF/B plates (PerkinElmer, Boston, Mass.) and scintillation was measured on a TopCount.NXT (Packard, Conn.).

[2] = test system: H929 human multiple myeloma cells; assay: Cellular proliferation in H929 cells, [3H]-thymidine incorporation; format: cell-based; conditions: H929 Assay
Experimental: as §1

B1: 385A08-Fc: 385A08 (SEQ ID NO: 226) joined by a spacer to an Fc fragment (Hinge-CH2-CH3), expressed in pichia (protein)
chain: GVSDVPRDLEVVAATPTSLLISWSARLKVARYYRITYGETGGNSPVQEFTVPKNVYTATISGLKPGVDYTITVYAVTRFRDYQPISINYRTEIDKPSQDPGS[human IgG1 Fc with changes not written out]
- [^3H] incorporation ([1]; Rh41 Trial 1, 0.016 nM): 101.2
- [^3H] incorporation ([1]; Rh41 Trial 1, 0.08 nM): 102.9
- [^3H] incorporation ([1]; Rh41 Trial 1, 0.4 nM): 97.1
- [^3H] incorporation ([1]; Rh41 Trial 1, 2.0 nM): 77.9
- [^3H] incorporation ([1]; Rh41 Trial 1, 10.0 nM): 61.9
- [^3H] incorporation ([1]; Rh41 Trial 1, 50 nM): 54.9
- [^3H] incorporation ([1]; Rh41 Trial 2, 0.016 nM): 102.5
- [^3H] incorporation ([1]; Rh41 Trial 2, 0.08 nM): 98.4
- [^3H] incorporation ([1]; Rh41 Trial 2, 0.4 nM): 94.6
- [^3H] incorporation ([1]; Rh41 Trial 2, 2.0 nM): 78.6
- [^3H] incorporation ([1]; Rh41 Trial 2, 10.0 nM): 59.3
- [^3H] incorporation ([1]; Rh41 Trial 2, 50 nM): 52.1
- maximum inhibition ([1]; Rh41 cell line): 91%
- [^3H] incorporation ([2]; 0.016 nM): 80.1
- [^3H] incorporation ([2]; 0.08 nM): 57.1
- [^3H] incorporation ([2]; 0.4 nM): 32.0
- [^3H] incorporation ([2]; 2.0 nM): 20.6
- [^3H] incorporation ([2]; 10.0 nM): 18.4
- [^3H] incorporation ([2]; 50 nM): 20.2
